We go through 88 compounds from PubChem BioAssay AID463173 (ICCB-Longwood Screening Facility, Harvard Medical School, 2010).

About 1,700 (3.3%) of roughly 52,000 compounds were called active. Cut-off read from the data, not from the text of the source: active = survival mostly below about 52% (no sharp cut-off); inactive = mostly above about 56%. This is one part of the list.

This test has as its system Wild type. Kind of test: growth inhibition of S. aureus wild type versus tarO mutant, primary screen, teichoic acid synthesis inhibitors, RN4220, OD600 (AID 463173). As to conditions: S. aureus RN4220 wild type/DeltatarO growth, OD600, 18 h, stronger effect = lower value, screened at 18.75 µg/mL (by protocol).
For the compound `Cc1[nH]n(-c2ccc(Cl)cc2)c(=O)c1C(=O)c1ccccc1`, the survival is inactive: 67%. Consider `Cc1ccc2nc(COc3ccccc3NC(=O)c3ccc(F)cc3)cc(=O)n2c1`, for which the survival is active: -3%. For `O=C(CSc1nc2c([nH]c3ccccc32)c(=O)n1-c1ccc(Cl)cc1)c1ccccc1` the value was inactive: 110%.

Turning to `Cc1cc(C)cc(NC(=O)Cn2cc(C(=O)C3CCCCC3)c3ccccc32)c1`, the survival was inactive: 68%. For `Cc1ccc2c(=O)cc(C(=O)Nc3ccc(S(=O)(=O)Nc4ncccn4)cc3)oc2c1C` the value was inactive: 86%; for `Cc1cc(C)c(NC(=O)C2CCN(c3nn4c(=O)cc(C)nc4s3)CC2)c(C)c1`, inactive: 90%; for `COc1ccc(NCc2cccn2-c2nnc(N3CCCCC3)s2)cc1OC`, inactive: 75%. The same measure for `COc1ccccc1CNC(=O)c1cn(C)c2ccc(S(=O)(=O)N(C)C3CCCCC3)cc2c1=O`: inactive: 74%; for `Cc1ccc(NC(=O)CSc2cn(CC(=O)N3CCCC3)c3ccccc23)cc1Cl`: inactive: 97%. For `CCOc1ccc(NS(=O)(=O)c2ccc3c(c2)CCCN3C(=O)C2CCC2)cc1` the value was inactive: 74%; for `COc1ccc(CCNc2ncnc3c2cnn3-c2cc(Cl)ccc2C)cc1`, inactive: 159%. With `Cc1ccc(NC(=O)Cn2c(=O)nc(-c3ccccc3)c3ccccc32)cc1F`, the survival was inactive: 66%. For `CC(C)(C)C1CCc2oc3ccc(NS(=O)(=O)c4ccc(C(=O)O)cc4)cc3c2C1` (stereo not drawn) the value was inactive: 52%. For `COc1ccc(Cn2c(SCC(=O)N(C)Cc3ccccc3)nc3ccccc32)cc1` the value was inactive: 92%; for `Cc1ccc(NC(=O)c2cc(S(=O)(=O)NCCc3ccc(Cl)cc3)ccc2F)cc1`, inactive: 74%; for `Cc1cccc(-c2noc(-c3ccc(N4CCOCC4)c([N+](=O)[O-])c3)n2)c1`, inactive: 87%. For `CC1CCN(S(=O)(=O)c2ccc3c(ccc(=O)n3CC(=O)Nc3cccc(F)c3)c2)CC1` the value was inactive: 121%; for `O=C(Nc1cnc(N2CCN(c3ccccc3)CC2)c(C(=O)O)c1)c1cccs1`, inactive: 124%. For `CN1CCc2c(sc3c2C(=O)NC(c2ccc(C(C)(C)C)cc2)N3)C1` (stereo not drawn), the survival is inactive: 74%. For `CC1CCCCN1C(=O)c1cc(-c2ccc(Br)cc2)on1` (stereo not drawn) the value was inactive: 84%. Regarding `CC1=C(C(=O)N2CCN(c3cccc(Cl)c3)CC2)C2(CCCCC2)OC1=O`, the survival is inactive: 69%. For `CCOC(=O)C1CCN(c2nc3c(S(=O)(=O)c4ccc(C)c(C)c4)nnn3c3ccc(Cl)cc23)CC1` the value was inactive: 121%; for `CCN(CC)S(=O)(=O)c1ccc2nc(NC(=O)c3cncc(Br)c3)sc2c1`, inactive: 73%.

As for `CCN(C(=O)c1cc2c(=O)oc3ccc(C)cc3c2s1)c1ccccc1C`, the survival was inactive: 81%. For the compound `Cc1ccc(OCc2nc(-c3ccc(C(=O)NCc4ccc(OC(C)C)cc4)cc3)oc2C)cc1`, the survival was inactive: 119%.

As to `Cc1cccn2c(=O)c(C(=O)NC(C)c3ccccc3)cnc12` (stereo not drawn), the survival was inactive: 82%. For `Cc1nc2scc(C)n2c(=O)c1S(=O)(=O)NCCc1ccccc1` the value was inactive: 122%; for `Cc1ccc(C)c(CN2C(=O)c3ccccc3S(=O)(=O)c3ccc(C(=O)NCCC4=CCCCC4)cc32)c1`, inactive: 82%. For `Cc1cc(C)c(NC(=O)C(C)n2nnc3sc4c(c3c2=O)CCCC4)c(C)c1` (stereo not drawn) the value was inactive: 92%; for `COc1ccc(Nc2oc(-c3ccc(COc4ccccc4C)o3)nc2C#N)cc1`, inactive: 86%; for `Cc1cc(C)cc(N2C(=O)N(Cc3cccc(F)c3)c3ccccc3S2(=O)=O)c1`, inactive: 105%.

For `Cc1ccc(C(=O)c2cn(Cc3ccc(Cl)cc3)c3nc(C)ccc3c2=O)cc1`, the survival is inactive: 53%. Turning to `COc1ccc(N2CCN(C(=O)CSc3n[nH]c(-c4ccccc4Cl)n3)CC2)cc1`, the survival was inactive: 72%. The same measure for `Cc1ccc(CNC(=O)c2cc(-c3ccc(Cl)cc3)on2)cc1`: inactive: 90%; for `Cc1cc(NC(=O)CN2C(=O)c3cccnc3Sc3ccccc32)ccc1Br`: inactive: 87%; for `c1cc2cc(C3=NCCN3)ccc2cc1C1=NCCN1`: inactive: 105%.

In the case of `COc1ccc(OC)c2sc(N(Cc3cccnc3)C(=O)c3ccco3)nc12`, the survival is inactive: 79%. The same measure for `CCc1ccccc1NC(=O)Nc1nnc(N(CC)c2ccccc2)s1`: inactive: 85%; for `CCCNC(=O)N(C)c1ncnnc1NC`: inactive: 100%; for `CN(C)c1ccc(CNC(=O)CN2CCSc3ccc(S(=O)(=O)N(C)C)cc32)cc1`: inactive: 87%.

For `Cc1ccc2oc(=O)c(S(=O)(=O)c3ccc(C(C)(C)C)cc3)cc2c1`, the survival is inactive: 81%. Take `CCN(c1ccccc1)S(=O)(=O)c1nnc(NC(=O)COc2cccc(C)c2)s1`: the survival is inactive: 104%. For `CCCCCn1c(=O)[nH]c2cc(C(=O)N3CCN(c4cccc(C(F)(F)F)c4)CC3)ccc2c1=O` the value was inactive: 70%; for `Cc1ccc(CNC(=O)CNS(=O)(=O)c2cccs2)cc1`, inactive: 71%. For `Cc1ccc(NC(=O)C2CCN(c3nn4cc(-c5ccc(C)cc5)nc4s3)CC2)cc1` the value was inactive: 60%; for `CCOc1ccc(NC(=O)Cn2c(=O)n(CC(=O)NCc3ccccc3Cl)c(=O)c3sccc32)cc1`, inactive: 164%; for `CC(C)(C)c1ccc(C(=O)Nc2sc3c(c2C#N)CCC(C(C)(C)C)C3)cc1` (stereo not drawn), inactive: 84%. The same measure for `O=C(Nc1ccc(Br)cc1)C1CCCN1S(=O)(=O)c1ccc(F)cc1` (stereo not drawn): inactive: 91%. As for `COc1ccc(CNC(=O)c2oc3c(c2C)-c2nn(Cc4ccc(Cl)cc4)cc2CC3)cc1`, the survival was inactive: 77%. For `CCOC(=O)c1c(N2C(=O)C3C4C=CC(O4)C3C2=O)sc2c1CCCC2` (stereo not drawn) the value was inactive: 110%. For `COc1cc(OC)c(NS(=O)(=O)c2c(C(=O)N3CCC(C)CC3)c(C)n(C)c2C)cc1Cl` the value was active: -1%; for `Cc1nnc(NC(=O)CSCc2cc(=O)c3ccccc3[nH]2)s1`, inactive: 119%; for `COc1ccc(CCNC(=O)CCn2c(=O)c3ccccc3n(Cc3ccccc3)c2=O)cc1OC`, inactive: 97%. For `CC(C)c1nn2c(=O)cc(COC(=O)c3ccccc3NC(=O)c3cccc(Cl)c3)nc2s1` the value was inactive: 69%; for `Cc1cc(Nc2ccc(C(=O)O)c(O)c2)n2ncnc2n1`, inactive: 72%; for `C=CCN1C(=O)CN=C1Nc1ccccc1`, inactive: 106%. For `CN(C)CCNc1oc(-c2ccc(COc3ccc(Cl)cc3)o2)nc1C#N`, the survival is inactive: 82%. For `Cc1cc(NC(=O)Cc2ccccc2)no1` the value was inactive: 111%.

Consider `Cc1nc2ccn(Cc3cccnc3)c(=O)c2cc1C(=O)N1CCN(c2ccc(F)cc2)CC1`, for which the survival is inactive: 82%. The same measure for `COC(=O)c1ccccc1NC(=O)c1cnc2c(-c3cccc(C)c3)c(C)nn2c1C`: inactive: 133%. The same measure for `CCS(=O)(=O)N1CC(=O)N(c2ccc(Cl)cc2)C(C)(C(=O)NC2CCCCCC2)C1` (stereo not drawn): inactive: 115%; for `COc1ccc(CCNC(=O)C(C)n2c(=O)cc(C(F)(F)F)c3c(C)nn(C)c32)cc1OC` (stereo not drawn): inactive: 82%. For `Cc1cc(C)cc(Oc2nc3c(C)cccn3c(=O)c2/C=C(\C#N)c2nc3ccccc3s2)c1` the value was inactive: 128%; for `COc1ccc(N2CCN(Cc3nnc(-c4cccc(Br)c4)o3)CC2)cc1`, inactive: 85%; for `CCc1ccc(C(=O)c2cn(Cc3ccc(F)cc3)c3cc(OC)c(OC)cc3c2=O)cc1`, inactive: 85%.

As to `CC(=O)c1cc(-c2ccc(F)cc2)n(CC(=O)Nc2cc(C)cc(C)c2)c1C`, the survival was inactive: 66%. The same measure for `COc1ccccc1Cc1nc2ccccc2nc1SCC(=O)N1CCN(c2ccccc2)CC1`: inactive: 80%. For `Cc1ccc(C(C)C)c(OCCSc2nc3ccccc3n2CC(O)CO)c1` (stereo not drawn) the value was inactive: 61%; for `Cc1ccc(C)c(Cn2c(C(=O)OC(C)C)cc3c2ccn3C)c1`, inactive: 109%; for `COc1ccc(CCn2c3c(c(=O)[nH]c2=O)C(NC(=O)c2ccc(C(C)(C)C)cc2)(C(F)(F)F)C(=O)N3)cc1OC` (stereo not drawn), inactive: 87%.

Consider `CCc1[nH]nc2c1C(c1ccc(F)c(Oc3ccccc3)c1)C(C#N)=C(N)O2` (stereo not drawn), for which the survival was inactive: 114%. The same measure for `COc1cccc(NC(=O)/C(C#N)=C/c2c(C)n(Cc3ccc(Cl)cc3)c3ccccc23)c1`: inactive: 81%; for `CC(C)Cn1c(-c2ccc(S(=O)(=O)N3CCOCC3)cc2)csc1=Nc1cc(Cl)ccc1Cl`: inactive: 82%; for `O=C(NCc1ccco1)c1ccc2c(c1)N(Cc1ccc(Cl)cc1)C(=O)c1ccccc1S2`: inactive: 82%. For `CCOc1ccc(Nc2nc3c(S(=O)(=O)c4ccc(C(C)C)cc4)nnn3c3ccsc23)cc1` the value was inactive: 81%; for `Cc1cc2nc(-c3ccc(NC(=O)c4cc5ccccc5o4)cc3)oc2cc1C`, inactive: 83%; for `CCN(CC)CN1C(=O)C2C3c4ccccc4C(c4ccccc43)C2C1=O` (stereo not drawn), inactive: 111%. For the compound `Cc1sc2ncn(CC(=O)Nc3ccc(C(C)C)cc3)c(=O)c2c1S(=O)(=O)N1CCN(c2ncccn2)CC1`, the survival is inactive: 85%. As to `CC1(C)N=C2C(=[N+]1[O-])CCC/C2=N/O`, the survival is inactive: 110%. For `CCCCNC(=O)CSc1nc2n[nH]c(C)c2c(=N)n1-c1cccc(Cl)c1C` the value was inactive: 136%; for `Cc1cccc(-c2noc(-c3cccnc3NCc3ccc(Cl)cc3)n2)c1`, inactive: 84%; for `CC1(C)N=C(SCc2ccccc2Cl)c2ccccc2N1`, inactive: 119%. Turning to `Cc1ccc(S(=O)(=O)c2nnn3c2nc(NC(C)C)c2cc(Cl)ccc23)cc1C`, the survival was inactive: 86%. The same measure for `COc1ccc2c(c1)sc1ncc(C(=O)NCc3ccccc3F)c(=O)n12`: inactive: 83%.

With `O=C(OC(C(=O)NCc1ccc2c(c1)OCO2)c1ccccc1F)c1ccco1` (stereo not drawn), the survival was inactive: 101%. The same measure for `COc1ccc(S(=O)(=O)Nc2ccc3oc4c(c3c2)CCCC4)cc1`: inactive: 41%; for `O=S(=O)(c1ccccc1)N1CCCC(C(F)(F)F)C1` (stereo not drawn): inactive: 110%; for `Cc1ccccc1C(=O)N1CC(=O)Nc2ccc(Cl)cc2C1c1ccccc1` (stereo not drawn): inactive: 66%.
